The record followed here is PubChem BioAssay AID1347073 (National Center for Advancing Translational Sciences (NCATS), 2019).

Hit rate of the full screen: of about 45,000 compounds, about 200 (0.44%) were called active. Roughly 7% stayed inconclusive and do not appear here. Calls follow the shape of the dose curve; as a rule, active = well fitted activation curve with a large enough effect; inconclusive = small, poorly fitted or top-dose-only effect; inactive = no such curve, though single readings can be large or run the other way. Some of the results follow.

This experiment can be described thus: qHTS of TDP-43 Inhibitors: NCGC Sytravon Library Screen. Also: 0% is about no effect; nearly all actives have a fitted effect of over 55% in size. The note with it: yeast TDP-43 toxicity rescue, BacTiter-Glo growth, 24 h; series mostly up to 46.1 µM; growth rescue (activation): at the top concentration. The gist of the method: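 TDP-43-expressing yeast, pregrown in raffinose, seeded at OD600 0.02 in galactose medium with compound for 24 hr at 30 deg C. Growth read by BacTiter-Glo luminescence, so rescue of toxicity appears as activation.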
`COc1ccccc1N1CCN(C2CCCN(C(=O)CN3CCCC3=O)C2)CC1` (stereo not drawn): the “growth rescue (activation)” value was inactive: 10.2%. Then `CCn1c(N)[n+](CC(=O)Nc2ccc(SC(F)F)cc2)c2ccccc21`, with inactive: 7.43%; and `COc1cccc(C(=O)/C=C/c2ccc(N3CCCCC3)c([N+](=O)[O-])c2)c1`, with inactive: 6.76%; and `CC(C)N(C)c1ncnc2c1ncn2[C@H]1CN(Cc2ccc(F)cc2)C[C@@H](CO)O1`, with inactive: 20.6%. Then `Cc1ccc(C)c(NC(=O)CSc2nc3ccc(N4C(=O)c5ccccc5C4=O)cc3s2)c1`, with inactive: -0.281%; and `C#CC[N+]1(CC#Cc2ccccc2)CCCC1`, with inactive: 3.47%; and `CCN(CC)S(=O)(=O)c1ccc(N/N=C/c2ccc(OC)c(OC)c2OC)nc1`, with inactive: 0.863%.

On to `CSc1ncccc1C(=O)OCC(=O)Nc1ccc(S(=O)(=O)N2CCCC2)cc1`, for which the “growth rescue (activation)” value is inactive: 23.2%. The figure for `O=C(CN1C(=O)COc2ccccc21)NCC1CCCO1` (stereo not drawn) is inactive: 4.81%. Then `COc1ccc(-c2[nH]ncc2CN(CCO)CC23CC4CC(CC(C4)C2)C3)c(OC)c1`, with inactive: -5.34%.

Take `C=CCN1CC2(c3ccccc3)CN(CC=C)CC(c3ccccc3)(C1)C2=O`: the “growth rescue (activation)” value is inactive: 1.97%. The figure for `CCc1ccc(CC2(O)CC(C)N(C)CC2C)cc1` (stereo not drawn) is inactive: -3.79%; for `COc1cc(CN(C)CC2CCCN(CCc3ccccc3F)C2)cc(Cl)c1OC` (stereo not drawn) it is inactive: -0.0838%; for `CC(NC1c2ccccc2-c2ccccc21)c1ccccc1` (stereo not drawn) it is inactive: -1.82%. For `CN(CC(=O)NC1CCN(Cc2ccccc2)CC1)S(=O)(=O)c1ccc2c(c1)c(=O)n(C)c(=O)n2C`, the “growth rescue (activation)” value is inactive: 1.18%. As for `CN(CC(=O)Nc1ccc(F)cc1)C(=O)c1ccc(OCc2cn3ccccc3n2)cc1`, the “growth rescue (activation)” value is inactive: -2.47%. The figure for `O=C(NNC(=O)C1CCCCC1)c1ccncc1` is inactive: -0.641%. Consider `COc1cc2c(cc1OC)CN(Cc1ccc(F)cc1)CC2`, for which the “growth rescue (activation)” value is inactive: -0.142%.

As to `CCC(Oc1ccccc1OC)C(=O)Nc1ccc2c(c1)n(C)c(=O)n2C` (stereo not drawn), the “growth rescue (activation)” value is inactive: 10.2%. Then `CCCc1cc(=O)[nH]c(SCC(=O)NN(c2ccccc2)c2ccccc2)n1`, with inactive: -15.3%; and `COc1cccc(C(NC(C)=O)c2nc(-c3cccc(C#N)c3)cs2)c1` (stereo not drawn), with inactive: 4.02%. As to `COc1ccc(C(=O)C[n+]2ccc(-c3nnc4n3CCCCC4)cc2)cc1`, the “growth rescue (activation)” value is inactive: 7.73%. `Cc1ccc(C)c(NC(=O)CN(C)C(=O)COc2ncnc3sccc23)c1`: the “growth rescue (activation)” value was inactive: -1.72%. The figure for `CCOC(=O)c1ccc(NC(=O)C(CC)Sc2nc3ncccc3o2)cc1` (stereo not drawn) is inactive: -3.22%; for `COc1ccc(/C=C2\SC(=O)N(CCNC(=O)Cn3[nH]c(=O)c4ccccc4c3=O)C2=O)cc1` it is inactive: 0.952%; for `COc1cccc(-c2cnc(C(O)c3ccc(F)cc3C)[nH]2)c1` (stereo not drawn) it is inactive: -2.17%. Then `COCCN1CCN(C(=O)C2CCC(=O)N(CCc3ccccc3)C2)CC1` (stereo not drawn), with inactive: -13.5%. The figure for `CC(C)(C)c1ccc(CSc2nnc(-c3ccccc3NC(=O)c3ccccc3)o2)cc1` is inactive: 7.92%. On to `O=C1CC2(CON=C2c2ccc(F)cc2)C(=O)N1c1ccc(F)cc1` (stereo not drawn), for which the “growth rescue (activation)” value was inactive: 3.75%. The figure for `COc1cccc(S(=O)(=O)Nc2ccc(C(=O)N3CCCCCC3)cc2)c1` is inactive: -3.66%; for `Cc1ccc(NC(=O)CSc2ccccc2NC(=O)c2cccc(Cl)c2)cc1Cl` it is inactive: -4.63%. Take `CNC(=O)c1sc(Nc2ccc(OCc3ccccc3)cc2)nc1C`: the “growth rescue (activation)” value was inactive: 21.5%. The figure for `COCc1cc(C)nc(OCC(=O)N/N=C/c2ccc(O)cc2O)c1C#N` is inactive: -2.36%; for `COc1ccc(NC(=S)Nc2ccc3nccnc3c2)cc1` it is inactive: -7.05%. The figure for `CC(C)(C)NC(=O)c1cc(NC(=O)c2cccs2)cc(NC(=O)c2cccs2)c1` is inactive: -2.26%; for `COc1ccc(NC(=O)/C=N/O)cc1` it is inactive: -6.44%; for `COc1cc(OC)cc(C(=O)Nc2ccccc2C(=O)NCc2cccnc2)c1` it is inactive: -6.52%. Then `COc1ccc(C(O)c2ncc(-c3ccccc3)[nH]2)cc1F` (stereo not drawn), with inactive: -6.96%; and `COc1ccc(S(=O)(=O)N(C)CC(=O)NCCN2CCOCC2)cc1`, with inactive: 10.7%.

As for `Cc1nc(C(F)(F)F)ccc1C(=O)N1CCC1(C)C(=O)NS(=O)(=O)c1cccc(C#N)c1` (stereo not drawn), the “growth rescue (activation)” value was inactive: -0.343%. Turning to `NS(=O)(=O)c1cccc(NC(=O)COC(=O)CC2CC3CCC2C3)c1` (stereo not drawn), the “growth rescue (activation)” value is inactive: 0.607%. As for `CC(=O)NCCNC(=O)C1(C)Cc2c(-c3cccc(C(F)(F)F)c3)ccnc2O1` (stereo not drawn), the “growth rescue (activation)” value was inactive: 15.2%.

`CC(NC(=O)c1ccc2c(c1)C(=O)N(Cc1cccnc1)C2=O)c1ccccc1` (stereo not drawn): the “growth rescue (activation)” value was inactive: -3.46%.

Take `Nc1ccc(S(=O)(=O)Nc2nccc(/C=C/c3ccccc3F)n2)cc1`: the “growth rescue (activation)” value is inactive: -7.52%. The figure for `COc1ccccc1C(CC(N)=O)c1ccco1` (stereo not drawn) is inactive: 5%.

`Cc1c(Cl)cccc1NC(=S)N1CCCN(Cc2ccccc2F)C1`: the “growth rescue (activation)” value is inactive: 0.696%. Then `O=C(CNC(=O)c1cccs1)OCc1ccc(Cl)cc1`, with inactive: 25.8%.

With `O=C(Nc1cccc(NC(=O)c2cccc(F)c2)c1)c1ccccc1`, the “growth rescue (activation)” value is inactive: 17.5%. Then `CC(=O)c1c(C)[nH]c(C(=O)NCC2CCCCC2)c1C`, with inactive: 20.5%; and `CCOCCCNC(=S)N1CCCN(c2nc3c(C)c(C)ccc3cc2C#N)CC1`, with inactive: 14.1%; and `Cn1cc(C(=O)NCCO)c(=O)c2ccccc21`, with inactive: 0.396%. `O=C(O)COc1ccccc1Cc1ccccc1`: the “growth rescue (activation)” value was inactive: 8.22%.

For `Cc1cc(Br)c2c(c1)=C(c1sc(N3CCCCCC3)nc1O)C(=O)N=2`, the “growth rescue (activation)” value was inactive: 4.51%. The figure for `COc1ccc(CCNC(=O)/C(C#N)=C2\N=C(NC(=O)c3ccco3)c3ccccc32)cc1` is inactive: 0.833%; for `Cc1cc[n+](-c2[nH]c(=O)sc2/C=N/NC([S-])=Nc2ccccc2)cc1` it is inactive: -8.54%. On to `COCCCNC(=S)N(Cc1cccnc1)Cc1ccc(OC)c(OC)c1`, for which the “growth rescue (activation)” value is inactive: -10.6%. Then `Nc1ccc(S(N)(=O)=O)cc1N`, with inactive: -0.73%; and `Cc1cc(S(=O)(=O)N2CCCC2)ccc1OCC(=O)NC1CCCC1`, with inactive: 7.38%.

For the compound `CON(C)S(=O)(=O)c1cccc(C(=O)Oc2ccc(N(C)S(=O)(=O)c3ccccc3)cc2)c1`, the “growth rescue (activation)” value was inactive: -4.99%. Then `COc1cc(/C=C/C(=O)OCC(=O)N2CC3(C)CC2CC(C)(C)C3)ccc1O` (stereo not drawn), with inactive: -9.72%; and `COc1cccc(OC)c1C(=O)Nc1cccnc1`, with inactive: -0.379%. The figure for `Cc1ccc(C(=O)N/C(=C\c2ccco2)C(=O)NC2CCS(=O)(=O)C2)cc1` (stereo not drawn) is inactive: 10.1%. The figure for `N#Cc1ccc(-c2cccc3nccn23)cc1` is inactive: 6.47%; for `Cc1ccc(N(C(=O)c2csnn2)C(C(=O)NC(C)(C)C)c2cccnc2)cc1C` (stereo not drawn) it is inactive: 6.98%. Consider `Cc1ccc(-c2nnc(N3CCOCC3)c3ccccc23)cc1S(=O)(=O)NCc1cccnc1`, for which the “growth rescue (activation)” value was inactive: 5.22%.

For `O=C(NC(c1ccc(Cl)cc1)c1ccsc1)C1CCN(CCOc2ccc(Cl)cc2)CC1` (stereo not drawn), the “growth rescue (activation)” value is inactive: 14.4%.

Regarding `CCCOP(=O)(c1ccc(N(C)C)cc1)C(O)c1ccc(Cl)cc1Cl` (stereo not drawn), the “growth rescue (activation)” value is inactive: 8.31%. The figure for `CN1CCCN(C(=O)c2ccc(Br)cc2)CC1` is inactive: 3.8%.
